Measurements published in PubChem BioAssay AID493208 (National Center for Advancing Translational Sciences (NCATS), 2011).
In all, about 44,000 compounds went through this assay and about 340 (0.77%) were called active. Not shown: some 5% with an inconclusive outcome. The call rests on the fitted dose curve; in most records, active means well fitted inhibition curve with a large enough effect; inconclusive means small, poorly fitted or top-dose-only effect; inactive means flat fitted curve, though single readings scatter. Some of the results follow.

experiment: Acumen qHTS Assay for Inhibitors of the mTORC1 Signaling Pathway in MEF (Tsc2-/-, p53-/-) Cells: Sytravon; details: phospho-rpS6 immunofluorescence/PI, 24 h; series mostly up to 38.3 µM; activity change, negative = inhibition: at the top concentration;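 further: plate controls were DMSO for no effect and rapamycin for full effect; nearly all actives have a fitted effect of over 50% in size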
Procedure, shortened: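 Tsc2-/-, p53-/- mouse embryonic fibroblasts (empty-vector line) exposed to compound 24 hrs at 37 C, fixed, immunostained for phospho-rpS6 and counterstained with propidium iodide. Acumen laser scanning gives % positive cells from Alexa 488/PI ratio, thresholded using 7.5 nM rapamycin; PI count gives viability.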

Activity change, negative = inhibition, inactive:
CCN1C(=O)CC(C(=O)Nc2ccc(OC)cc2)SC1=Nc1ccc(C)c(C)c1 (stereo not drawn) -16.7%
CCOC(=O)c1noc2ncn(CC(=O)O)c(=O)c12 -13.1%
O=C(NCCC1=CCCCC1)c1ccc2c(c1)N(Cc1ccccc1)C(=O)c1ccccc1S2(=O)=O -16.8%
O=C(Cn1cc(SCc2ccccc2Cl)c2ccccc21)N1CCCCCC1 -4.64%
COc1ccc(OC)c(CNS(=O)(=O)c2ccc(-c3cc(C(F)(F)F)on3)s2)c1 -26.8%
Cc1ccc(N2CCN(C(=O)c3nn(C)c4c3CSc3ccccc3-4)CC2C)cc1 (stereo not drawn) 0.712%
Cc1ccc(CNC(=O)CN(c2cc(C)cc(C)c2)S(=O)(=O)c2c(C)[nH]c(=O)[nH]c2=O)cc1 -22.2%
CCc1ccc(C2c3c(n[nH]c3C)C(=O)N2c2ccc(C)cc2)cc1 (stereo not drawn) -4.84%
CCc1cccc(NC(=O)CCS(=O)(=O)c2ccc(C)cc2)c1 1.88%
CCOc1ccc(-c2ccc(CO)o2)cc1N 0.607%
O=C(NC1CCCC1)c1ccc2c(c1)N(Cc1ccc(F)cc1)C(=O)c1ccccc1S2 -12.6%
COc1ccc(NC(=O)C(Cc2ccccc2)n2cccc2)c(OC)c1 (stereo not drawn) 1.47%
CC(C)CCNC(=O)CSc1nc2ccsc2c(=O)n1Cc1ccccc1Cl -1.88%
COc1ccc(-c2noc(-c3ccccc3NC(=O)c3cc(OC)c(OC)c(OC)c3)n2)cc1 1.27%
O=S(=O)(Nc1nc2n(n1)C(c1ccccc1)C=C(c1ccc(Cl)cc1)N2)c1ccccc1 (stereo not drawn) -1.25%
O=C(NCc1ccc(Cl)cc1)C1CCCN(c2ncnc3onc(-c4ccc(F)cc4)c23)C1 (stereo not drawn) 6.61%
Cc1cccc(NC(=O)c2c(Br)sc3c2CCCC3)c1 -0.168%
COc1ccc(Nc2nnc(-c3ccc(C)c(S(=O)(=O)N4CCOCC4)c3)c3ccccc23)cc1 12.3%
COc1ccccc1N1CCN(C(=O)CSc2nc(-c3ccc(C(C)C)cc3)no2)CC1 0%
O=C(COc1ccccc1F)Nc1nnc(S(=O)(=O)N2CCCCCC2)s1 0%
CCOc1cc(C2c3c(oc4ccc(F)cc4c3=O)C(=O)N2Cc2ccc(C)cc2)ccc1O (stereo not drawn) -6.1%
CCCCNC(=O)CSc1nc2n[nH]c(C)c2c(=N)n1-c1ccccc1CC -8.15%
COc1ccc(C2CC(=O)c3c([nH]c(C(=O)OCc4ccccc4)c3C)C2)cc1OC (stereo not drawn) -18.6%
CCC1CN(C(=O)Nc2cccc3c2CCCC3)c2cc(C)ccc2O1 (stereo not drawn) 2.56%
CCOC(=O)c1c(C)oc2nc(C)nc(NCCCN3CCN(c4cccc(C)c4)C(C)C3)c12 (stereo not drawn) -13.3%
Cc1ccccc1Cc1c(C)nc2nc(SCC(=O)NC(C)c3ccccc3)nn2c1C (stereo not drawn) 0%
COc1ccccc1N(CC(=O)NCCSCc1ccccc1)S(C)(=O)=O 7.5%
CCCCc1nn2c(=O)cc(COC(=O)c3cccc(OC)c3)nc2s1 0%
COc1ccc2c(c1)cc1c(=O)n(CC(=O)NCc3ccco3)nc(C)n12 0.468%
COc1ccc(-c2cc(C(F)(F)F)nc(SCC(=O)NCc3ccc(OC)c(OC)c3)n2)cc1 -0.482%
CCc1nnc2c(Nc3cccc(C(C)=O)c3)nc3ccccc3n12 0.619%
CCOc1ccc(C(=O)NCc2ccc3c(c2)CCN3C(=O)c2ccccc2)cc1 -7.47%
COc1ccc(-c2onc(C)c2C)cc1S(=O)(=O)NCc1ccco1 0%
CCc1ccc(CNC(=O)c2ccc3c(c2)nc2n3CCC(C)C2)cc1 (stereo not drawn) -13.8%
CCCCc1nn2c(=O)cc(COC(=O)COc3ccc(C)cc3)nc2s1 -7.63%
COc1ccc(C)cc1NC(=O)CN(c1ccccc1)S(=O)(=O)N(C)C -5.52%
CCOC(=O)CN1C(=O)c2ccccc2Sc2ncccc21 -0.828%
COc1ccc(NC(=O)CN2C(=O)COc3ccc(S(=O)(=O)Nc4ccccc4)cc32)cc1 -2.06%
CCC12CN3CC(C)(CN(C1)C3c1c[nH]c3ccccc13)C2=O (stereo not drawn) -7.04%
COc1ccc(/C=C\c2onc(C)c2S(=O)(=O)N2CCC(C(=O)Nc3ccc(C)cc3C)CC2)cc1 1.36%
CCc1ccc(NC(=O)CSC2=Nc3ccccc3C3=NC(CCC(=O)NCCc4ccccc4)C(=O)N23)cc1 (stereo not drawn) -0.155%
CC1=C(C(=O)Nc2ccc(C)cc2C)C(c2ccc(O)cc2)n2nnnc2N1 (stereo not drawn) 6%
O=C(Nc1ccc(F)cc1Cl)n1ncc2cc(Cl)ccc21 -2.77%
CCC(=O)N1CCc2cc(S(=O)(=O)NC(CC(C)C)C(=O)Nc3cc(C)ccc3OC)ccc21 (stereo not drawn) -15.1%
CCCOc1ccc(C(=O)Nc2cccc(NC(=O)c3cccc(Cl)c3)c2)cc1 27.5%
CCS(=O)(=O)c1ncc(N(Cc2ccco2)Cc2sccc2C)c(C(=O)Nc2ccc(C)cc2C)n1 -0.735%
CC(=O)c1cccc(Nc2ccc3cc(S(=O)(=O)N4CCC(C)CC4)ccc3n2)c1 2.27%
O=C(COc1ccccc1-c1nnc(-c2ccccc2)o1)Nc1ccc(Br)cc1F 0.181%
CCC(=O)N1CCc2cc(S(=O)(=O)NCCC(=O)Nc3ccc(C)cc3)ccc21 1.6%
CCCNC(=O)CCNS(=O)(=O)c1ccc2c(c1)c(=O)n(C)c(=O)n2C -3.15%
CC(=O)c1ccc(NS(=O)(=O)c2cc(-c3cc(C)no3)ccc2C)cc1 -13.5%
CC(C)c1ccc(-c2nnc3n(CCc4ccccc4)c(=O)c4ccccc4n23)cc1 -10.7%
Cc1ccc(CNC(=O)CCc2c(C)nc3nc(CNC(=O)OC(C)(C)C)nn3c2C)cc1 0.589%
Cc1cccc(NCc2nc3ccccc3n2CCOc2ccccc2C)c1 -9.13%
COc1ccc(NC(=O)c2c(C)oc3ccc(O)c(CN4CCCC4)c23)cc1Cl 2.78%
COc1cc(C(=O)n2nc(-c3ccco3)nc2NCc2ccc(Cl)cc2)cc(OC)c1OC -2.55%
COc1ccc(C(=O)NCC(c2ccc(N(C)C)cc2)N2CCCC2)c(OC)c1 (stereo not drawn) 1.74%
Cc1cccc(-c2nc(CSc3nncn4c3cc3oc(C)cc34)c(C)o2)c1 -6.55%
COc1ccccc1OCC(=O)Nc1nc2c(s1)CC(C)CC2 (stereo not drawn) -17.8%
Cc1ccc2nc(-c3ccc(Cl)cc3)cc(C(=O)OCC(=O)c3ccccc3)c2c1 2.21%
CCSc1ncc(Cl)c(C(=O)Nc2c(C(=O)Nc3cccc(C)c3)oc3ccccc23)n1 -3.41%
COc1ccc(C(=O)NCCc2sc(-c3ccc(F)cc3)nc2C)cc1OC 0%
CC1CCC(NC(=O)C2(C)Cc3ccccc3C(=O)N2Cc2ccc(F)cc2)CC1 (stereo not drawn) 0.907%
CCC(C(=O)NC1CCCCC1)n1c(SCc2ccc(F)cc2)nc2ccncc21 (stereo not drawn) -2.4%
CCC(Cn1nnc2ccccc2c1=O)NC(=O)Nc1ccc(C)cc1C (stereo not drawn) -5.79%
CCOc1ccccc1C(=O)NCc1ccc2c(c1)CCN2C(C)=O -3.97%
Cc1ccc(C2c3[nH]c4ccccc4c3CCN2C(=O)Nc2ccc(C)c(C)c2)cc1 (stereo not drawn) 4.78%
Cc1ccc(S(=O)(=O)Nc2cccc(-c3ccc(N4CCCCC4)nn3)c2)s1 2.86%
CCOC(=O)C(C)Sc1nnc2ccc3ccccc3n12 (stereo not drawn) -0.153%
Cc1ccc(NC(=O)C(=O)NCc2ccc(Cl)cc2)cc1 -3.54%
O=C(NCCc1ccc(Cl)cc1)c1ccc(CSCc2ccccc2Cl)o1 5.35%
CC(=O)c1cccc(NC(=O)c2nc(-c3ccc(C)cc3)n3c2CCCCC3)c1 -9.35%
Cc1cccc(NC(=O)C2CCCN(S(=O)(=O)c3cccc4nonc34)C2)c1 (stereo not drawn) 0.24%
COc1ccc(C2(CNC(=O)C(=O)Nc3cccc(C(F)(F)F)c3)CCCC2)cc1OC -5.55%
COc1cc(OC)c(NC(=O)CCn2cnc3onc(-c4ccc(F)cc4)c3c2=O)cc1Cl 8.26%
CCOc1ccc(NC(=O)N(Cc2c[nH]c3ccccc23)C2CCCCC2)cc1 1%
Cc1ccc(CNCc2c(C(=O)O)n(Cc3ccccc3C)c3cc(C)ccc23)cc1 -6.57%
CCCCNC(=O)c1[nH]c2ccccc2c1Sc1ccc(C)cc1 -0.463%
Cc1oc(-c2ccc(C(=O)NCc3ccc(N(C)C)cc3)cc2)nc1COc1ccccc1 0.249%
CC(NC(=O)CN(C)S(=O)(=O)c1ccc2c(c1)c(=O)n(C)c(=O)n2C)c1ccccc1 (stereo not drawn) -2.5%
Cc1cc2c(=O)c(C(=O)c3ccncc3)cn(CC(=O)Nc3cccc(C)c3C)c2cc1C 0.702%
Cc1ccc2c(c1)c(=O)c(C(=O)c1ccncc1)cn2CC(=O)Nc1c(C)cccc1C 1.14%
Cn1cc(S(=O)(=O)N2CCCCC2)cc1C(=O)N1CCN(c2ccc(F)cc2)CC1 0.618%
Cc1cc(=O)n(CC(=O)NCCC(C)C)c2c1c(C)nn2C 9.13%
Cc1ccc(C)c(S(=O)(=O)c2cnc(SCC(=O)Nc3ccc(F)cc3F)[nH]c2=O)c1 -0.318%
CCc1ccc(NC(=O)CSc2nccn2C2CCCC2)cc1 -16.3%
Cc1ccc(C)c(-c2csc(-c3c(N)c(C(=O)c4ccc5c(c4)OCO5)n4ccccc34)n2)c1 0.348%
CCN(CC)CCNC(=O)C1CCCN(c2ncnc3onc(C)c23)C1 (stereo not drawn) -6.78%
Cc1c(C(N)=O)nnn1-c1ccc(Br)cc1 -9.79%
COc1ccc(CCNC(=O)Cn2ncc3c(C)n(Cc4ccccc4F)c(C)c3c2=O)cc1OC -0.365%
COc1ccc(CCNC(=O)Cn2nc(C)n3c(cc4occc43)c2=O)cc1OC -17.6%
CCOC(=O)c1c(S(=O)(=O)N2CCCC(C(=O)N3CCN(c4ccc(F)cc4)CC3)C2)c(C)n(C)c1C (stereo not drawn) -5.06%
Cc1ccc2nc(N(Cc3cccnc3)C(=O)C3CCCCC3)sc2c1 1.34%
CCn1cc(C(=O)OCC(=O)Nc2cc(Cl)ccc2OC)c(=O)c2ccc(C)nc21 -4.47%
COc1ccc(NC(c2ccc(F)cc2)c2nnc(-c3ccccc3Cl)o2)cc1Cl (stereo not drawn) -28.4%
CCc1ccc2nc(N3CCC(C(=O)O)CC3)sc2c1 -1.46%
COc1cc(CNCc2c(C(=O)O)c(C)n(Cc3cccc(Cl)c3)c2C)cc(OC)c1OC -6.61%
COc1ccc(Br)cc1CNC(=O)C(C)n1nc(C)n2c(cc3occc32)c1=O (stereo not drawn) 1.98%
